# Laboratory results from the supplement of paper PMC4166925.
# ± gives the standard deviation of the averaged measurements. In all, about 33,000 sequences were measured (“E-score (dimensionless, -0.5 to 0.5)”: median about -0.049, highest 2% from about 0.37 on). The list shows a part of the results.
# Test system: T1, PmTbr T-box DNA-binding domain (GST fusion)
# T1 sequence: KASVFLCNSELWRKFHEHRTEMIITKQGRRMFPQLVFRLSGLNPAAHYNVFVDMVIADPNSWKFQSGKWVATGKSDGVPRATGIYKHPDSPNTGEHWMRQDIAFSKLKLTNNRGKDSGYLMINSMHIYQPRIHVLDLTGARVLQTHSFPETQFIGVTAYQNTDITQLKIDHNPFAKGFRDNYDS
# Experiment: PBM E-score of 8-mer (E-score (dimensionless, -0.5 to 0.5)); Tbr is Tbrain of the sea star Patiria miniata (Pm) or the sea urchin Strongylocentrotus purpuratus (Sp); higher = stronger binding preference; most listed sequences are background and not binding sites
# Settings: the construct has about 5 more residues each side
# Method: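 Universal protein-binding microarray (Agilent AMADID 016060, 60-bp probes with a 35-bp variable region) incubated with 200 nM GST-fused Patiria miniata Tbr T-box DNA-binding domain (residues 272-466) in PBS pH 7.5. Scored for every ungapped 8-mer (given with its reverse complement) by the Universal PBM Analysis Suite as E-score (modified Wilcoxon-Mann-Whitney enrichment, range -0.5 to 0.5; >0.45 counts as bound) and Z-score of median probe intensity. Two replicate arrays (datasets 1 and 2).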
# 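Further: 200 nM protein in PBS on universal arrays averaged over duplicate arrays.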
row,Sequence,PBM E-score of 8-mer
1,AACGCGAA,0.186 ± 0.0084
2,GTCGAGTA,0.00721 ± 0.0094
3,GTTAGACA,0.0496 ± 0.014
4,AGTGAGTA,0.0722 ± 0.026
5,ACGCCGCC,0.0426 ± 0.041
6,GGCTCTTA,-0.264 ± 0.028
7,AACCTCAA,-0.113 ± 0.028
8,CATATGCG,0.0977 ± 0.0099
9,GTCCGGTA,-0.329 ± 0.058
10,ATTTACCG,-0.215 ± 0.0027
11,CGTATTTC,-0.139 ± 0.029
12,ATGGATCC,-0.0796 ± 0.058
13,GATTCGAC,-0.031 ± 0.096
14,ATGGGGTA,-0.219 ± 0.1
15,TCGGAAGA,-0.0733 ± 0.074
16,CGAGGACG,-0.0441 ± 0.0044
17,GTACCAAA,-0.168 ± 0.069
18,GGGTTGTA,-0.0196 ± 0.042
19,TGCGCGAA,0.307 ± 0.017
20,TCCATCGA,-0.121 ± 0.022
21,GGTAGAGA,-0.124 ± 0.0055
22,AAATCGCG,0.349 ± 0.0082
23,TCTACTAA,0.0659 ± 0.0013
24,CAATACCA,0.0795 ± 0.018
25,ACGGAGCA,-0.0774 ± 0.0075

row,Sequence,PBM E-score of 8-mer
1,ACTTTACT,-0.111 ± 0.12
2,CAACTGGC,0.211 ± 0.037
3,CCTCCACC,-0.0543 ± 0.035
4,ACGATCAA,-0.162 ± 0.013
5,GAGATCGA,0.00632 ± 0.01
6,GCTGACCC,-0.159 ± 0.14
7,GCGGCGAA,-0.0974 ± 0.1
8,GGGCTTAA,-0.183 ± 0.044
9,TAGTAGAA,-0.194 ± 0.044
10,ATTGTAGA,-0.0842 ± 0.022
11,ATACAGTG,-0.0789 ± 0.064
12,ACTTGGTA,0.0808 ± 0.016
13,CTGGGGAC,0.121 ± 0.066
14,GGGGTACC,-0.183 ± 0.033
15,AGTTATTC,-0.195 ± 0.0077
16,AAGCCTTA,-0.276 ± 0.028
17,GTCGTGCA,0.0573 ± 0.028
18,AAAGACTG,-0.228 ± 0.065
19,AGTGGTTA,0.00971 ± 0.076
20,AGGGTAGG,-0.0131 ± 0.00042
21,CCATACGC,-0.137 ± 0.034
22,ACCTGCTC,0.00244 ± 0.013
23,CCCCACTC,-0.0572 ± 0.09
24,AGCTGGCG,0.119 ± 0.021
25,TAGAGTGA,0.178 ± 0.012

row,Sequence,PBM E-score of 8-mer
1,CATGTAAC,-0.0898 ± 0.0084
2,AGACTAAT,-0.251 ± 0.079
3,ACCAGATA,-0.156 ± 0.054
4,CACCAATA,0.224 ± 0.056
5,GAGCCGTA,-0.0341 ± 0.054
6,GCAATTCA,0.0777 ± 0.042
7,CGCACGTC,0.354 ± 0.02
8,CATTTGGG,-0.2614 ± 0.002
9,AAGTCTAT,-0.309 ± 0.089
10,CAAAGGAA,-0.165 ± 0.013
11,CGCTATTA,0.159 ± 0.054
12,AGGTATCG,0.123 ± 0.032
13,CTGGGGTC,-0.208 ± 0.033
14,GACATCTC,-0.14 ± 0.016
15,AAGAGGTA,-0.158 ± 0.021
16,TATGCGAA,0.157 ± 0.0088
17,CGTTGTAG,-0.00943 ± 0.05
18,AACGCTTA,0.166 ± 0.021
19,CTTAGGCA,-0.0866 ± 0.011
20,ACCGTCAC,0.288 ± 0.0081
21,CTTGGCTA,-0.0844 ± 0.048
22,CCACCCTC,0.0601 ± 0.017
23,CCCAGGAA,-0.142 ± 0.023
24,GAAGACGA,-0.305 ± 0.0095
25,ACGTTGCA,-0.145 ± 0.0049

row,Sequence,PBM E-score of 8-mer
1,ATTCGAAT,-0.0925 ± 0.017
2,ATGCCGAA,-0.199 ± 0.021
3,ACTATTTG,-0.139 ± 0.031
4,AGTGGACG,-0.104 ± 0.032
5,GACCCCGC,-0.216 ± 0.0024
6,AACCTGTA,-0.252 ± 0.046
7,GTAACTAC,-0.097 ± 0.15
8,AAATCTCT,0.0435 ± 0.048
9,CGGAGGCA,-0.298 ± 0.015
10,CGACAGAC,0.139 ± 0.032
11,CGAAGCCA,-0.104 ± 0.016
12,AGGTACAA,-0.0949 ± 0.057
13,ATTCCGAC,0.0363 ± 0.035
14,AACCACAA,-0.0691 ± 0.031
15,GCGCCTTA,0.277 ± 0.0035
16,AGCAATTA,-0.152 ± 0.0064
17,AATGACTG,-0.142 ± 0.015
18,AACTGAGG,0.0786 ± 0.069
19,GGTGAACA,0.00576 ± 0.0094
20,ACGTTCCA,-0.0197 ± 0.034
21,ACGCAATC,-0.12 ± 0.013
22,CCTGGACG,0.0437 ± 0.0018
23,AACTAGGT,-0.0895 ± 0.044
24,CTATCAGC,0.117 ± 0.012
25,CCATTGAA,-0.102 ± 0.034

row,Sequence,PBM E-score of 8-mer
1,GGATCGTA,-0.244 ± 0.076
2,GTCGGCTA,-0.0946 ± 0.064
3,GAGGGATA,-0.128 ± 0.13
4,CTAACCCC,-0.0519 ± 0.009
5,GGATCTAA,-0.118 ± 0.035
6,ATTACGTG,-0.12 ± 0.019
7,CGCTTACG,0.0984 ± 0.0067
8,ACACTCCA,0.24 ± 0.068
9,AGGCGTGG,0.265 ± 0.016
10,AACCAGTC,-0.0784 ± 0.098
11,CCAAGCAG,-0.173 ± 0.041
12,AACTAGCG,-0.0154 ± 0.092
13,AATCTGTG,0.143 ± 0.031
14,CTCATGAC,-0.102 ± 0.065
15,AGACGGCG,-0.0944 ± 0.11
16,AGTCTTTA,-0.193 ± 0.069
17,AGTATCAT,-0.221 ± 0.054
18,TACGGGCA,-0.148 ± 0.08
19,ATAGATAG,-0.176 ± 0.049
20,ACGCACAT,0.0989 ± 0.047
21,CTCGCGAC,0.326 ± 0.0051
22,CCAAGACA,-0.0176 ± 0.016
23,CTTGACTA,0.033 ± 0.076
24,AGCTGGAA,-0.132 ± 0.025
25,ACACGTCA,0.361 ± 0.0048

row,Sequence,PBM E-score of 8-mer
1,ATTCCTCA,-0.108 ± 0.025
2,CCGAAACA,-0.00945 ± 0.018
3,ACACATTA,0.264 ± 0.008
4,ACGCATAA,-0.118 ± 0.039
5,AGCCCTGG,-0.26 ± 0.018
6,GGCCCTCA,-0.295 ± 0.033
7,GCCACTAC,0.147 ± 0.013
8,GGCACGTA,0.0287 ± 0.0079
9,AGTCGGAG,-0.144 ± 0.002
10,GCAACGGC,0.0371 ± 0.011
11,ATACGGGG,-0.144 ± 0.043
12,CTTTCGAC,0.0243 ± 0.02
13,AAACTGGC,0.13 ± 0.044
14,ATCAGAAC,-0.365 ± 0.033
15,AGGGGGTA,0.00961 ± 0.032
16,AGCTGGCA,0.142 ± 0.022
17,CCTTGCGA,0.243 ± 0.012
18,ATTATACC,0.119 ± 0.0056
19,ATATTGCA,0.0576 ± 0.082
20,TAGCCAAA,-0.194 ± 0.012
21,TGACCCAA,-0.145 ± 0.0015
22,CTCTAGTC,-0.239 ± 0.017
23,AGTGCATG,-0.347 ± 0.018
24,GCCTTCAA,-0.155 ± 0.025
25,ATATCGCC,0.139 ± 0.029

row,Sequence,PBM E-score of 8-mer
1,CAACCGTC,0.0479 ± 0.024
2,ACTTTCAC,0.313 ± 0.0082
3,AACACACT,0.229 ± 0.021
4,CCTAGCGC,0.153 ± 0.098
5,ACAAAGCT,-0.165 ± 0.021
6,AATAGTAG,-0.0825 ± 0.047
7,GTTTGATA,-0.123 ± 0.13
8,CGCAATTA,0.00835 ± 0.072
9,AAAGTACG,-0.13 ± 0.044
10,GTCATACA,0.0295 ± 0.042
11,CTGGGTAC,-0.184 ± 0.07
12,AGTGGAAC,0.00316 ± 0.023
13,AGGTCACT,0.071 ± 0.038
14,ACGGTAGG,-0.191 ± 0.084
15,AGCGAACC,-0.0638 ± 0.0049
16,TCCGTAGA,-0.294 ± 0.049
17,TAAACCTA,-0.0446 ± 0.025
18,CAGGCTTA,-0.197 ± 0.047
19,AAACCGTA,-0.102 ± 0.012
20,AATCATCC,-0.13 ± 0.073
21,ATTCGCTA,0.231 ± 0.016
22,CATACGGC,-0.163 ± 0.044
